Measurements taken from PubChem BioAssay AID588591 (National Center for Advancing Translational Sciences (NCATS), 2011).
Values joined by “and” are separate entries in the source; they are usually repeats but may differ in a detail not shown here. Identical values can stand only once. The campaign covered roughly 390,000 compounds. About 4,700 (1.2%) were called active. The inconclusive results got no clear call from the source; some entries with a clear call stand among them for comparison. The call rests on the fitted dose curve; in most records, active means well fitted inhibition curve with a large enough effect; inconclusive means small, poorly fitted or top-dose-only effect, or another doubt; inactive means no such curve, though single readings can be large or run the other way. Potencies of inconclusive entries are doubtful fits and often do not repeat.

Target: DNA polymerase eta (Homo sapiens) (UniProt Q9Y253)
UniProt Q9Y253, sequence (Q9Y253 whole entry, looked up): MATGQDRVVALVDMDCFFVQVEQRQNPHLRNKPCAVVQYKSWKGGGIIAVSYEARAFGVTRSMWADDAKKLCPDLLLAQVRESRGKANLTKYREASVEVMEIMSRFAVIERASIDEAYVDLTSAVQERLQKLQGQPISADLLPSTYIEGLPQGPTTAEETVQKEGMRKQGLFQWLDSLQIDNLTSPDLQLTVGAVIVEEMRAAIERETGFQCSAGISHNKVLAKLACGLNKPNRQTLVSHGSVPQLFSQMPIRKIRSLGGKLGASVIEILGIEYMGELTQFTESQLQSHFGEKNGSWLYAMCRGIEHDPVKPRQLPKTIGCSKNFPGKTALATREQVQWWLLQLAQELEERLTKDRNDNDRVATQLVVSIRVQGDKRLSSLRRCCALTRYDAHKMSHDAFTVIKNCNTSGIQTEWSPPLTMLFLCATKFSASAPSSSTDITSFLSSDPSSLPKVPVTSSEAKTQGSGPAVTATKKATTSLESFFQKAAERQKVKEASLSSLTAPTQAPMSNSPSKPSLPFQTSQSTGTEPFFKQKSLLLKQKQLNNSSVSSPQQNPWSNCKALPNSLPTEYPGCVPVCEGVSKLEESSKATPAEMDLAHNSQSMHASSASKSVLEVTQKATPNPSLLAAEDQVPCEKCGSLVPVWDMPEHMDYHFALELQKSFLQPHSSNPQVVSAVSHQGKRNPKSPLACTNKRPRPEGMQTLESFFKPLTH
Test: qHTS for Inhibitors of Polymerase Eta
Details: recombinant Pol eta, fluorescent DNA replication assay; series mostly up to 114 µM; activity change, negative = inhibition: at the top concentration
Outline: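 Pol eta (10 nM) was preincubated with compounds for 15 min at room temperature, after which fluorescent replication substrate (50 nM final) was added to start the reaction. Fluorescence was read kinetically at 0 and 10 min.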
On the % scale 0 is the no-effect control and ±100 the full control effect; potency means the concentration at half of the fitted maximal effect; tags describe the fitted curve by direction and shape.

SMILES | activity change, negative = inhibition | Potency
CCCCC(=O)Nc1nnc(S(=O)(=O)N(C)Cc2ccc(Cl)cc2)s1 | inactive: -5.05% | 
CCNc1ccc(Br)cc(C(=O)/C=C/c2ccc(Cl)cc2)c1=O |  | active: 39.8 µM
C=CCOC(=O)c1[nH]c2c(c1C)C(=O)CC(c1ccco1)C2 (configuration not stated) |  | active: 25.1 µM
O=C(CCl)NC(Cc1ccccc1)C(=O)OCC(=O)c1ccc(-c2ccccc2)cc1 (configuration not stated) |  | inconclusive: 7.94 µM [inhibitor, partial curve, poor fit]
O=C(CSc1nc(NS(=O)(=O)c2ccccc2)cc(=O)[nH]1)Nc1ccc(F)cc1 |  | inconclusive: 100 µM [inhibitor, single point]
COc1cc(/C=C/C(=O)CC(=O)/C=C/c2ccc(O)c(OC)c2)ccc1O | inactive: -8.68% | 
O=c1c(Oc2ccccc2F)coc2cc(OCc3cnn(-c4ccccc4)c3)ccc12 |  | inconclusive: 22.4 µM [inhibitor, full curve]
Cc1ccccc1C1=C/C(=C(\SS/C(C(=O)c2ccc(OCC(=O)O)c(Cl)c2Cl)=C2\C=C(c3ccccc3C)SS2)C(=O)c2ccc(OCC(=O)O)c(Cl)c2Cl)SS1 |  | active: 14.1 µM
Cc1c(C=Nc2ccc(S(=O)(=O)CCO)cc2)c(O)[nH]c(=O)c1C#N | inactive: -8.68% | 
CCOC(=O)c1cc2c(=O)n3ccccc3nc2n(Cc2ccco2)c1=NC(=O)c1ccccc1Br |  | inconclusive: 79.4 µM [inhibitor, partial curve, poor fit]
Cc1sc2ncn(CC(=O)N3CCC(C(N)=O)CC3)c(=O)c2c1S(=O)(=O)N1CC(C)CC(C)C1 (configuration not stated) | inactive: -98.1% | 
Cc1ccc(NC(=O)CN2C(=O)S/C(=C\c3cccn3-c3cccc(C(=O)O)c3)C2=O)c(C)c1 |  | active: 3.55 µM
C#CCOc1c(Br)cc(/C=N/O)cc1OCC |  | inconclusive: 35.5 µM [inhibitor, single point]
O=C1C(SCCO)=C(SCCO)C(=O)c2ccccc21 |  | active: 31.6 µM and active: 15.8 µM
CC[n+]1c(/C=C/C=C/N(C(C)=O)c2ccccc2)sc2ccccc21 |  | inconclusive: 56.2 µM [inhibitor, partial curve, poor fit]
O=C(O)c1ccc(/C=N/NC(=O)c2cc3c(ccc4ccccc43)o2)cc1 |  | inconclusive: 56.2 µM [inhibitor, partial curve, poor fit]
NC(CSC1(c2ccccc2)c2ccccc2-c2ccccc21)C(=O)O (configuration not stated) |  | inconclusive: 20 µM [inhibitor, full curve, poor fit]
Cc1ccc(NC(=O)C2CCN(S(=O)(=O)c3cc([N+](=O)[O-])ccc3Cl)CC2)nc1 |  | inconclusive: 50.1 µM [inhibitor, partial curve]
COc1cc(/C=C2/C(=O)N(c3ccc(Br)cc3)N=C2C)cc(OC)c1OC | inactive: 0.199% | 
O=C(CCC(=O)N1CCSc2ccccc21)Nc1ccc(Cl)cc1 | inactive: -21.6% | 
O=c1oc2ccccc2cc1-c1nnc(NCc2ccco2)s1 |  | inconclusive: 12.6 µM [inhibitor, partial curve, poor fit]
CCN1C(=O)CC(C(=O)NC)SC1=Nc1cc(Cl)c(O)c(Cl)c1 (configuration not stated) | inactive: 0.573% | 
[O-][n+]1onc2c3cc(-c4ccccc4)nnc3ccc21 |  | inconclusive: 10 µM [inhibitor, partial curve]

SMILES | activity change, negative = inhibition | Potency
CCc1ccc(Nc2n[n+](-c3ccccc3)c(-c3ccc(C(=O)O)cc3)s2)cc1 |  | inconclusive: 79.4 µM [inhibitor, partial curve, poor fit]
CCCC1Nc2ccc(C(=O)O)cc2C2C=CCC12 (configuration not stated) |  | active: 8.91 µM
O=C(NC(=S)Nc1cccc(S(=O)(=O)NC2=NCCC2)c1)c1cc(-c2ccco2)nc2ccccc12 |  | inconclusive: 70.8 µM [inhibitor, partial curve]
COc1ccccc1OCCOc1ccc(/C=C2/C(=N)N3OC(C)=CC3=NC2=O)cc1OC |  | active: 3.98 µM
CCN(CC)c1ccc(NC(=O)CSc2nc(-c3cccs3)cc(C(F)(F)F)n2)cc1 |  | inconclusive: 44.7 µM [inhibitor, partial curve, poor fit]
CC(Oc1ccc(F)cc1)C(=O)Nc1cccc(-c2nn[nH]n2)c1 (configuration not stated) |  | active: 44.7 µM
CCCOc1ccc(C2C3=C(Nc4nc(N)[nH]c(=O)c42)c2ccccc2C3=O)cc1 (configuration not stated) |  | inconclusive: 63.1 µM [inhibitor, partial curve, poor fit]
N#Cc1c(-c2ccccc2)nc(SCc2cccc(Cl)c2)[nH]c1=O |  | inconclusive: 89.1 µM [inhibitor, single point]
O=C(Cc1ccc(-n2cccc2)cc1)NCc1cccs1 |  | inconclusive: 31.6 µM [inhibitor, single point]
Cc1ccc(C)c(OC(=O)CSc2nnc(CNC(=O)c3ccccc3)o2)c1 | inactive: -13.9% | 
O=C(c1cc(COc2c(F)cccc2F)on1)N1CCC(c2ccccc2Cl)C1 (configuration not stated) |  | inconclusive: 79.4 µM [inhibitor, partial curve, poor fit]
N=C1/C(=C\c2coc3ccc(O)cc3c2=O)C(=O)N=C2SC=CN12 |  | active: 12.6 µM
Cn1c(=O)c2cn(-c3ccc4c(c3)OCCO4)cc2n(C)c1=O |  | inconclusive: 31.6 µM [inhibitor, single point]
COc1ccc(Cn2c(=O)c3oc4ccccc4c3n(CC(=O)Nc3ccc(F)cc3F)c2=O)cc1 | inactive: -8.21% | 
O=C(CSc1nnc(Nc2ccccc2F)s1)NC(=O)CN1CCCC1=O |  | active: 22.4 µM
CNC(=O)c1sc(-c2cccs2)nc1C | inactive: -9.78% | 
CCc1ccccc1NC(=O)c1cnc2sc(N3CCCC3)nn2c1=O | inactive: -9.76% | 
O=C(CCN1C(=O)/C(=C/c2cccs2)SC1=S)Nc1ccc(C(=O)O)cc1 |  | active: 44.7 µM
COc1cc2c(c(OC)c1)C(c1cccc(OC)c1OC)CC(=O)N2 (configuration not stated) | inactive: -11.4% | 
COCCn1c(=S)[nH]c2cc(C(=O)N3CCN(c4ccccc4OC)CC3)ccc2c1=O | inactive: -6.25% | 
O=C(NCC1CCCO1)C(=O)N/N=C/c1cccc(Cl)c1 (configuration not stated) |  | inconclusive: 39.8 µM [inhibitor, partial curve, poor fit]
C=C1C(=O)OC2C1C(OC(=O)C(C)=CC)CC(=C)C1C(O)C3OC3(C)C21O (configuration not stated) |  | inconclusive: 22.4 µM [inhibitor, single point]
CC(C)(C)NS(=O)(=O)c1cc(C(=O)Nc2sccc2C#N)ccc1Cl |  | inconclusive: 22.4 µM [inhibitor, partial curve, poor fit]

SMILES | activity change, negative = inhibition | Potency
O=[N+]([O-])c1cccc2c(S(=O)(=O)N3CCOCC3)cccc12 |  | inconclusive: 89.1 µM [inhibitor, partial curve, poor fit]
O=C(Nc1ccccc1Cl)c1ccc2nccnc2c1 |  | inconclusive: 100 µM [inhibitor, partial curve, poor fit]
COC(CNC(=O)c1cccnc1)OC | inactive: -6.93% | 
CCN(CC)CCCNC(=O)c1nn(C)c2c1CS(=O)(=O)c1ccccc1-2 | inactive: -17.8% | 
O=C(NCCCN1CCN(c2ccc(F)cc2)CC1)c1ccc2nc(Cc3ccccc3)oc2c1 | inactive: -16.1% | 
O=c1c([N+](=O)[O-])cn(Cc2ccccc2)c(=O)n1Cc1ccccc1 |  | inconclusive: 79.4 µM [inhibitor, partial curve, poor fit]
Nc1cc(S(=O)(=O)O)cc2ccc(S(=O)(=O)O)cc12 |  | inconclusive: 15.8 µM [inhibitor, full curve, poor fit]
CCN(CC)c1ccc2cc(C(N)=O)/c(=N\NC(=O)c3ccncc3)oc2c1 |  | inconclusive: 25.1 µM [inhibitor, partial curve, poor fit]
COc1ccc(C(=O)N(CC(=O)Nc2sc(C)c(C)c2C(N)=O)C2CCCC2)cc1 |  | inconclusive: 79.4 µM [inhibitor, partial curve, poor fit]
N#CCSc1nc2ccccc2c(=O)n1CCCC(=O)NCc1ccco1 | inactive: 3.39% | 
COc1ccc(-c2nc3c(C#N)c[nH]n3c2NC2CCCC2)c(OC)c1 | inactive: -17.4% | 
CCOc1ccc(N2C(=O)CS/C2=C(\C(Cl)=C(Cl)Cl)[N+](=O)[O-])cc1 |  | inconclusive: 22.4 µM [inhibitor, partial curve]
CC(/C=C1\SC(=S)N(CCCC(=O)Nc2ccc(C(=O)O)c(O)c2)C1=O)=C\c1ccccc1 |  | inconclusive: 50.1 µM [inhibitor, partial curve]
Cc1cccc(C(=O)NCc2ccco2)c1 |  | inconclusive: 79.4 µM [inhibitor, partial curve]
CC1=Nc2nc(N3CCCCC3)c(C#N)c3c4c(nc(c23)N1)N(c1ccc(C(C)C)cc1)C(=O)C4 |  | inconclusive: 2.51 µM [inhibitor, full curve, poor fit]
COc1ccc(/C=C2/Sc3ccc(C(=O)NCCCN4CCOCC4)cc3NC2=O)cc1OC |  | inconclusive: 15.8 µM [inhibitor, partial curve, poor fit]
COc1ccc2nc(C)cc(N/N=C/c3cccc(OC)c3O)c2c1 |  | inconclusive: 28.2 µM [inhibitor, full curve]
CC[C@@H](C)[C@H](C(CC(=O)N1CCCC1[C@@H](OC)[C@H](C)C(=O)N[C@H](Cc1ccccc1)c1nccs1)OC)N(C)C(=O)[C@H](NC(=O)[C@@H](C(C)C)N(C)C)C(C)C (some centres not stated) | inactive: -16.3% | 
Cc1cc(C)nc(SSc2nc(C)cc(C)n2)n1 | inactive: -13.3% | 
O=C(Nc1ccc(S(=O)(=O)NCc2ccco2)cc1)c1cccc(F)c1 |  | inconclusive: 50.1 µM [inhibitor, partial curve]
CC(NC(=O)c1ccccc1[N+](=O)[O-])C1CC2CCC1C2 (configuration not stated) |  | inconclusive: 89.1 µM [inhibitor, single point]
